The full ranking holds about 33,000 sequences; the median of “E-score (-0.5 to 0.5)” is about -0.021, and the highest 2% start at about 0.32. This is one part of the list.
These sequences were tested against T1, Zap1 (UniProt P47043) (assay: PBM E-score (8-mer binding enrichment) (E-score (-0.5 to 0.5)); higher = stronger / more preferred TF binding; most listed sequences are background and not binding sites). Details: protein concentration: 200 nM; construct: GST-full length.
T1 sequence: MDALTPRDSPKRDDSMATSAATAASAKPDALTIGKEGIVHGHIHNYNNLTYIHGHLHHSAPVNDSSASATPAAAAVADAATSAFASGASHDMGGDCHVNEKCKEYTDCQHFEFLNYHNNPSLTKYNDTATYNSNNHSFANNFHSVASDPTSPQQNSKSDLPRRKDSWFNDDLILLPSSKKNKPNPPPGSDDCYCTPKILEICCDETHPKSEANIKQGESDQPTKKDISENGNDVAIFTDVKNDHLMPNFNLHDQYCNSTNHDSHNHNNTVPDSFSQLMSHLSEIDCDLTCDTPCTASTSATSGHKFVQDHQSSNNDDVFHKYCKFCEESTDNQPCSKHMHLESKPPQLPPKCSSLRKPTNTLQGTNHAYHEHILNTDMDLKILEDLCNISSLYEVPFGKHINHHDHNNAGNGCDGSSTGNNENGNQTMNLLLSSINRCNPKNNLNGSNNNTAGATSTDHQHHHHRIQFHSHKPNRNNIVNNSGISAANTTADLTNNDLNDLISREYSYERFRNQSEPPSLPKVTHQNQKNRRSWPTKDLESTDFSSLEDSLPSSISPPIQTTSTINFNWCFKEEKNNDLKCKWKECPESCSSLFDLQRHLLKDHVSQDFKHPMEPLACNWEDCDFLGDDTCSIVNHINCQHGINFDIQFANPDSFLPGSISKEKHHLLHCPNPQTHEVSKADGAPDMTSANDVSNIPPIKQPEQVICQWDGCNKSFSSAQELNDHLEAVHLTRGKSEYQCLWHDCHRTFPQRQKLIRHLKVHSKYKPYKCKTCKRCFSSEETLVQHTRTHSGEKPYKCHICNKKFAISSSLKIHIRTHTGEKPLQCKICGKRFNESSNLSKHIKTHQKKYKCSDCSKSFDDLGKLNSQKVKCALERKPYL
Summary of the method: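 Using PURExpress in vitro transcription/translation, GST-tagged yeast transcription factors were made in full-length or DNA-binding-domain form. These were applied at about 100-200 nM to double-stranded universal all-10-mer Agilent arrays, and bound protein was detected with fluorescent anti-GST. Scans were normalised with masliner before the Universal PBM Analysis Suite assigned E-scores to ungapped eight-base words pooled with their reverse complements.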

Point of comparison: TGCCAGAA, “PBM E-score” value -0.0227. Against it:
- CTTCTAGA — lower, -0.105
- ACCGTCCC — lower, -0.132
- ATCCGCTG — lower, -0.219
- AACTTCCG — higher, -0.00312
- ACTTTAAT — higher, 0.126
- ATGCAGTA — higher, 0.0225
- ACGGAGCG — lower, -0.242
- AACAGAAT — lower, -0.121
- GTATTCAA — higher, 0.123
- GATACACA — lower, -0.0237
- CATTTTGG — higher, 0.144
- CTAAATCA — higher, 0.153
- AGAAATAG — higher, 0.101
- GTACCCGA — higher, 0.184
- ACACTGCT — lower, -0.156
- CTCTCCGA — lower, -0.0405
- GAGAAGAA — higher, 0.0995
- AGCGATTG — lower, -0.19
- ACTGAGAG — lower, -0.205
- GCCCGTCC — lower, -0.318
- ACTTCTAA — lower, -0.0406
- ACGGTACG — higher, 0.0714
- TACTTGCA — higher, 0.0221
- AGGTTCTG — higher, 0.0612
- GGGTCTGA — lower, -0.0635
- CCTACATA — higher, 0.0736
- AGTCGAAA — lower, -0.107
- GTGGCATA — lower, -0.0833
- GTAAATAA — higher, 0.154
- TAGTTTCA — higher, 0.0596
- GACAGTCA — lower, -0.217
- AGTAGCTC — lower, -0.177
- ATATGCCG — lower, -0.0539
- TACATGAA — lower, -0.11
- CACCTCGG — higher, 0.0517
- ACTGGACT — lower, -0.178
- GGAACTCC — lower, -0.155
- AGGACATA — higher, 0.118
- GTATCCTA — higher, 0.101
- GTCCTGTA — higher, 0.0824
- GACATAAA — higher, 0.0452
- CACAGACG — lower, -0.0494
- ATTAGGTC — higher, 0.242
- AGCACTTA — lower, -0.191
- TAGTACTA — higher, 0.263
- GTTGTTCA — higher, 0.0615
- GAATTAAA — higher, 0.0572
- ACCGCCGG — higher, 0.0345
- CTACGTTA — lower, -0.0352
- ATTATTAG — higher, 0.0497
- GGTCTCAA — higher, 0.169
- CGACACAG — higher, 0.0118
- AGCATGCT — lower, -0.116
- CCCAACAA — higher, 0.156
- CTAGATCC — lower, -0.117
- CCTAAACC — higher, 0.0156
- GCCTGTGA — lower, -0.183
- GTCGTCAC — higher, 0.183
- ACGGTGAA — lower, -0.0282
- ATTTTGGG — higher, 0.206
- CAAACTTA — higher, 0.0348
- CACATACA — lower, -0.0437
- GGTCGTCA — higher, 0.172
- AACTACCA — higher, 0.179
- CACCACGG — lower, -0.112
- AAGCTTAA — higher, 0.0366
- GCTCTGCA — lower, -0.108
- CTAAACCC — higher, 0.051
- CCAGTTTC — lower, -0.0588
- TTCTCAAA — higher, 0.185
- CACCCAGG — higher, 0.053
- CCACGGAG — higher, 0.0833
- AAGCTAAG — lower, -0.101
- TCCAAGAA — lower, -0.0864
- TATTGCGA — higher, 0.17
- CTGGTATA — lower, -0.0413
- TCCCGCCA — lower, -0.0582
- GGCTTATA — lower, -0.0306
- ACCGAGTA — lower, -0.0716
- AATCACGC — lower, -0.0575
- ATTGGGCG — lower, -0.0725
- CTATTTAC — higher, 0.0797
- ATATATTG — lower, -0.0627
- GAGCTGAA — lower, -0.144
- AATGCAAG — higher, 0.0663
- CGTCTCAC — lower, -0.107
- CGAGAGAC — lower, -0.109
- CAATCCGC — lower, -0.0297
- ACTAAGAT — higher, 0.164
- TGGTAAAA — higher, 0.121
- GCGAGTGA — higher, 0.0176
- AACATCAA — higher, 0.0874
- CGTAGGTC — lower, -0.135
- ATAGAGGG — higher, -0.0117
- ACTTCTCC — lower, -0.155
- ATACCTAT — higher, 0.198
- CAAGCCTG — lower, -0.201
- GCGTTCAC — lower, -0.0284
- ATGTTGCC — lower, -0.203
- ACTACAGT — higher, 0.0525
- AGCGGCCC — lower, -0.193
- AAATGCGT — lower, -0.113
- TCATGTAA — higher, 0.0291
- GAGTCTGA — lower, -0.232
- ATTTGTAC — higher, 0.0992
- CATAGACA — higher, 0.0191
- GAAACCTA — higher, 0.0599
- AAGATTAA — higher, 0.0788
- GACCCTTA — higher, 0.376
- CATTCCTC — lower, -0.103
- AAGCTACA — lower, -0.226
- CATCACGC — higher, -0.017
- ATGCTTAA — lower, -0.028
- AATTGTAA — higher, 0.0936
- AGCCCAGC — lower, -0.243
- ACAGGGAA — lower, -0.0781
- GTCCACGA — higher, 0.041
- TAGCCAGA — higher, -0.00683
- AGCTAATC — higher, 0.0224
- GGAGCTAC — lower, -0.178
- ACGCTCGC — lower, -0.088
- AGAGTCTG — lower, -0.259
- TGTTACAA — higher, 0.098
- GTACTCGA — lower, -0.0599
- CATATGAA — higher, 0.108
- GAGATCTA — lower, -0.114
- CCCAAGCG — lower, -0.113
- AACTTGTA — higher, 0.0256
- GCCCACCA — lower, -0.217
- ATTAACAC — higher, 0.172
- CTTTGGTA — higher, -0.0191
- AGGAACGG — higher, 0.00118
- CATAACAG — lower, -0.0694
- CTTAAAGA — higher, 0.101
- GAGTGTCA — higher, 0.035
- AGAGTGCA — lower, -0.105
- TAGACGAA — higher, 0.0459
- AAGAACCC — higher, 0.306
- CCCAATAC — higher, -0.00651
- ACCATAAA — higher, 0.384
- GGAGTGTA — lower, -0.0955
- ATTTACCC — higher, 0.155
- ACGATGTA — lower, -0.25
- CAGATTAC — higher, 0.0563
- CAGGGTCC — higher, 0.14
- CGATGATA — lower, -0.0676
- CGAGCGTA — lower, -0.102
- CATAGCTC — lower, -0.186
- ACAGTGGA — higher, -0.0134
- CTTAATAC — higher, 0.207
- ACCTCTCC — higher, 0.0281
- CGTCTCAG — higher, 0.0562
- AAAGATCG — lower, -0.0307
- GAAGGGAA — lower, -0.194
- AACTCGAG — higher, 0.0111
- GAATTTGA — lower, -0.0284
- GAGAATCC — higher, -0.00686
- TAAGACTA — higher, -0.0191
- CAGGGAAG — lower, -0.0974
- CGGAGAAC — lower, -0.14
- TACGCTCA — higher, -0.0116
- GCGTCCAA — lower, -0.112
- GTGATAAA — higher, 0.0529
- TAGCACAA — higher, 0.0953
- TGGCGAAA — higher, 0.078
- CTTCAATA — higher, 0.0646
- AACAGTGA — lower, -0.163
- GTACAGTA — lower, -0.0523
- CCCCCGCA — lower, -0.206
- AGTCACAG — higher, 0.0255
- TTACGCAA — higher, 0.224

Source: the supplement of paper PMC3334620
